Measured values: the supplement of paper PMC10126150
Sequences with one replicate were seen in a single cluster, so their values are uncertain.

System: ATP
Test: switch fluorescence ratio, 500 uM ATP over buffer (Cy3 cluster intensity, sum of 5 cycles each) (fold (ratio)); higher = stronger signal-on switching upon ATP binding; sequences stand for … in TCGTCGGCAGCGTCAGATGTGTATAAGAGACAGTTTTTTTTTTTTTTTTTTTTTTTTT…TC
Conditions: aptamer strand: ATP DNA aptamer (quencher-CACCTGGGGGAGTATTGCGGAGGAAGG + anchor), 100 nM annealed; ATP concentration: 500 uM; one replicate
How it was run: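 For every switch-domain sequence, the fluorescence ratio is the mean of per-cluster values, each being summed target-cycle Cy3 intensity over summed buffer-cycle Cy3 intensity. Clusters outside 100-1000 RFU were excluded. On a modified Illumina MiSeq flow-cell, the Cy3-labelled switching-strand clusters were annealed to 100 nM quencher-labelled ATP aptamer, imaged in selection buffer and then after 15 min with 500 uM ATP at 22 °C. Five such cycles were run, with NaOH stripping and re-annealing between them.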
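Further: ATP exposure 15 min at 22 °C before imaging.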

ATGTAGTATT was tested, and the switch fluorescence ratio was 0.961.

GGGTGCTGGT was tested, and the switch fluorescence ratio was 0.961.

With ATCGGGTTCT the switch fluorescence ratio was 0.96.

In the case of TCACAATCAC, the switch fluorescence ratio is reported as 1.35.

With ATTGGTGTGC the switch fluorescence ratio was 0.974.

For TTAGTGCCA, the switch fluorescence ratio was 0.999.

AGTGTAGGCC showed a switch fluorescence ratio of 0.989.

GCACTCCGCG gave a switch fluorescence ratio of 4.25.

Sequence CATTTTTCGG has a switch fluorescence ratio of 1.05.

CGTTTTGGAC was tested, and the switch fluorescence ratio was 1.

Work on TAAATGTCCG yielded a switch fluorescence ratio of 1.03.

Work on CAGTTGATTC yielded a switch fluorescence ratio of 0.981.

Sequence CGCTTGTTGG has a switch fluorescence ratio of 0.985.

In the case of CCTAGTTTAT, the switch fluorescence ratio is reported as 0.964.

For CGGGGTAAAT, the switch fluorescence ratio was 1.02.

Sequence AAATGATCTG has a switch fluorescence ratio of 0.902.

CTGCGATTAA gave a switch fluorescence ratio of 1.08.

GATTGGCGAA was tested, and the switch fluorescence ratio was 0.971.

Sequence GATGTTCTAA has a switch fluorescence ratio of 1.02.

Sequence AGCTGACCGG has a switch fluorescence ratio of 0.88.

Sequence ATCTGTGCGG has a switch fluorescence ratio of 1.01.

TCAGGACTGG gave a switch fluorescence ratio of 0.992.

ACTGTTTAAA gave a switch fluorescence ratio of 0.976.

In the case of TATTTTCTCT, the switch fluorescence ratio is reported as 0.994.

With CATAATTTGA the switch fluorescence ratio was 0.978.

Work on AAGTTATCAG yielded a switch fluorescence ratio of 1.01.

Sequence TGTCTGGGTG has a switch fluorescence ratio of 1.16.

Sequence CATCGAGCGT has a switch fluorescence ratio of 1.01.

Sequence GACTCGCCAA has a switch fluorescence ratio of 1.98.

TGCCACTCCA was tested, and the switch fluorescence ratio was 1.04.

Sequence AAGTTGTCTA has a switch fluorescence ratio of 0.973.

TCATTTACT was tested, and the switch fluorescence ratio was 1.33.

In the case of GCGCCTGACC, the switch fluorescence ratio is reported as 1.24.

For TAGACACAAC, the switch fluorescence ratio was 1.11.

Sequence ATACTT has a switch fluorescence ratio of 1.23.

ACCGCCTTTG gave a switch fluorescence ratio of 1.03.

In the case of AACTTCTCAT, the switch fluorescence ratio is reported as 1.02.

In the case of GAATCTGATC, the switch fluorescence ratio is reported as 0.992.

GCCCCGGCC was tested, and the switch fluorescence ratio was 0.977.

GTCTGTCAGT showed a switch fluorescence ratio of 0.963.

GATAAGTAGG gave a switch fluorescence ratio of 1.03.

With GATGAGTTTG the switch fluorescence ratio was 0.957.

ATACTCGTCT gave a switch fluorescence ratio of 1.06.

With CGTAGCTTGG the switch fluorescence ratio was 1.24.

Work on CATCTCCAGT yielded a switch fluorescence ratio of 1.03.

TTTGTACCTT gave a switch fluorescence ratio of 1.15.

With ATGCACTCCA the switch fluorescence ratio was 1.11.

ATAAAGAGGG gave a switch fluorescence ratio of 1.01.

TTACGAATAA gave a switch fluorescence ratio of 1.04.

For TATGACCTC, the switch fluorescence ratio was 1.01.

With TTCTTTAAGT the switch fluorescence ratio was 1.01.

With CGACTGAACG the switch fluorescence ratio was 1.01.

ATATCAGTAA was tested, and the switch fluorescence ratio was 0.978.

ATATCAGGAG gave a switch fluorescence ratio of 1.01.

With AAGTTCCGTA the switch fluorescence ratio was 0.991.

With TGGCTCGACG the switch fluorescence ratio was 0.992.

In the case of ATCCATCAC, the switch fluorescence ratio is reported as 0.992.

TACACTTCGG showed a switch fluorescence ratio of 1.01.

In the case of AGATTCTGAC, the switch fluorescence ratio is reported as 1.

CAGGATTCCC was tested, and the switch fluorescence ratio was 0.986.
